# Measurements as given in the supplement of paper PMC11417369.
# Some of the results follow.
# Test system: PfAP2-HC AP2 domain (GST-tagged)
# Test: gcPBM binding intensity (ln(normalized median fluorescence intensity)); higher = stronger DNA binding
# Summary of the method: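 Plasmodium falciparum DNA-binding domains carrying a GST tag were expressed in E. coli and applied for 1 h, at about 25 μg on average, to an Agilent 4 × 180k array. The array held primer-extended double-stranded 36-bp intergenic genomic probes together with negative controls, and binding took place in 1× PBS with 1% milk, 0.2 mg/ml BSA, 0.5% salmon testes DNA and 0.03% Triton X-100. An Alexa488 anti-GST antibody detected bound protein, and the array was scanned at 488 nm. Binding intensity is taken as the highest Masliner-normalised natural-log median intensity across replicate spots of either probe orientation.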
row,Sequence,gcPBM binding intensity (ln)
1,TATGTGTATAATAAAAGTACATATATTATTATATAA [XGTACX_site8556],9.63
2,ATTGACGTCATATAAACATGCACATTTTGGATGTTT [TGCATGCA_site985],9.63
3,TAAAATAATAAAACAACACACAAATAGTTAAAATAG [CACACA_site1680],10.3
4,CATATAATAAAAAATGTACACACATAAGAAAATTTA [CACACA_site8943],9.92
5,AAGATAAACTTTTTTAATTAATTTAATTTTTTTTTT [GTGCAC_negctrl_site386],9.51
6,AATAAATAAAAAATTACACACATATTTATAAATATA [CACACA_site7584],9.83
7,TTTGTTTTTATTTACACATGCAAAAAAAAAAAAAAA [TGCATGCA_site655],9.14
8,ATATATATATATATTCCACACACACCCAAAAAAAAA [CACACA_site9215],10.8
9,TAAAATAAGTTAAAAAGTACATAATTATAATAAATA [XGTACX_site8108],9.66
10,CACAAAAATAAATATAAACACACAATAAATAAATAA [CACACA_site8197],10.1
11,TTATAATAGTTAATATGTACATATTTAATAAATAAT [XGTACX_site3183],9.51
12,CCCCCCCACGAACACACACACATACATACCACATAT [CACACA_site7149],11
13,TACAAAATACAAAAATGTACATAAAAATTTATAAAA [XGTACX_site6861],9.69
14,ATATTAAAATATAATCGTACAATTAAATTTTTTTTT [XGTACX_site2739],9.54
15,TACAGATACGGACACACACACACACCCAGACAAAAA [CACACA_site4432],11
16,ATATAGAATATATTAACATGCAATAAGTAAAGGGGG [TGCATGCA_site1022],9.87
17,ACAATGAAATATTCATGTACATATAAATAATAGTGT [XGTACX_site3762],9.77
18,CACTTCATAAAAATTGCACACATATAATAATGTACA [CACACA_site8692],9.79
19,TCATATAATCAAATATGTACATATTTTCAATTGAAT [XGTACX_site6831],9.64
20,ATATAATTTGATGGTTAACACACATATATATTATAT [CACACA_site8775],9.93
21,TTATTTATTTTTTATACACACAATTATCTTTTTAAG [CACACA_site6162],9.75
22,ATATTTATTTAATGAACACACGATATATTATTTTAT [CACACA_site1602],9.72
23,TGTTTTCCCTTTAGTGTGCACGTATTTCTATTAACA [GTGCAC_site9847],10.1

row,Sequence,gcPBM binding intensity (ln)
1,TAAATCATTTATTAAGTGCAATATTCTTTTTGAGAT,9.34
2,TAAAAACATTTAAATTGTACGGAAATAAAAATTTTT [XGTACX_site8225],9.46
3,ATATAAATATTAAATACACACATTTTTGATTAGGTT [CACACA_site7461],9.73
4,AAAATGATAATACCAAGTACACATATGAAAAATACA [XGTACX_site6763],9.91
5,ATGTGTGTATACATCAATTATATATATATTATGTAT [GTGCAC_negctrl_site720],10
6,AAAATAAAAATAACAACACACATATACTATAATATT [CACACA_site2769],10.8
7,TATGTTAAAAAAAAATGTACATATGTTTTTGTTAAA [XGTACX_site4754],9.44
8,AAATGAATAATGATATACAAACAAATCATGTGTTAA [XGTACX_negctrl_site150],9.72
9,GACCCATTATTTTATTGTACTTTTATTATAACGTGA [XGTACX_site156],9.8
10,ATACATTCAAAATATACACACATATATATATAATAT [CACACA_site950],9.86
11,TTTCCCCCATATAATGAACACACACCCTCCTCATAA [CACACA_site8110],10.1
12,ATTTTTTTTAATTTGTACAAATTTTGTTCACAATTT [CACACA_negctrl_site1301],9.8
13,TACCATGTTCAAATTACACACATATAATCTAATATA [CACACA_site2008],9.7
14,TTTATTATTATATTATTTTAATTTTTCTTTAGTACA [GTGCAC_negctrl_site392],9.49
15,CATTTCATTTCTTAATGTACTTTATTCCACCACATA [XGTACX_site5943],9.65
16,ATAAATATATGAAGTTGTACAAATAATTAACATTAT [XGTACX_site5740],9.94
17,AAATTAAATAAATTTACACACTAAAAATTACATATA [CACACA_site1054],9.6
18,TTATATATGTATTAATGTACATAGTTGAGAAAGGTA [XGTACX_site1511],9.71
19,AAAGGGACATATATATCACACACAAAAATTAGTCCC [CACACA_site8897],10
20,TAATATCTACATATATGTACATATATATATATATAT [XGTACX_site7979],9.97
21,GGAAGCTAATTACACACATGCATATTTTTTTTTCAA [TGCATGCA_site548],9.87
22,ATAATATAGAACAATACATGCAAATGGCTTAAATTT [TGCATGCA_site521],9.79
23,ATGGGACAGATATATACACACATATAAATATAAATA [CACACA_site6684],10

row,Sequence,gcPBM binding intensity (ln)
1,ATGTTATATTATAAAAGTACATTTTATTTTTATTTA [XGTACX_site4365],9.61
2,ATTTCCTTTTTCTGTTGTACTCATAAAATAATATGT [XGTACX_site7234],9.82
3,GTTAAGTGTATATATACACACATATGTAATACATGA [CACACA_site3048],9.95
4,ATATGTAGAATAAAAAAAAAAAAAAAAAAAAAAAAT [CACACA_negctrl_site621],9.64
5,TAATTAAAATTATATATTAGAAAAAACATATAAAAC [CACACA_negctrl_site190],9.56
6,TAAAAATATATGTATACACACATATATATATATATA [CACACA_site3951],9.79
7,AAAAAAAGTGACTCCTTACACACTTTACATAATTTA [CACACA_site820],9.63
8,AATATTGAAATAACGCGTACAAAAAAAAGTTATATT [XGTACX_site6559],9.99
9,AATGAAATAATACAATGTACGTTAAAAAAAAATAAA [XGTACX_site7928],9.69
10,TAATATCAAACCTATAGTACATAAGGTATAAAAAAG [XGTACX_site3533],9.72
11,GTATTATTTTATGATGCATGTGTATTTCATATATGC [TGCATGCA_site660],9.87
12,AATATAACTTTTTGCACACTTAATTTTTTTTTTTAA [CACACA_site3365],10
13,TAACAAAAAGCACTTAGTACATATATATATATATAT [XGTACX_site1099],10.1
14,TATATTTATTATAACACACACATATTTATATTATAG [CACACA_site6628],9.9
15,TTTCTTTTTAAATATATACACACCGGGTGTACATAT [CACACA_site3345],9.89
16,AGGTAATATACTAAATGTACAGAAAAACGAATTTTT [XGTACX_site2977],9.7
17,ACTTCCTATATTTATGCATGCATTTTATTAAAAAAT [TGCATGCA_site747],9.88
18,ATATATCATGAACCTTGTACGTATATATATATATAT [XGTACX_site239],9.8
19,TATACAATATTTATAACACACATATTTATATAAACT [CACACA_site6932],9.73
20,AGAACATTTTCTCAGTGTACTTATATATTTGACATA [XGTACX_site6541],9.61
21,ACTAAACAATATGTATGTACATATTTTACATATAAT [XGTACX_site3318],9.79
22,TACAGACAGAAACACACACACACGCATAAAAAAAAA [CACACA_site1514],10.5
23,TAATAATAACCGTTATGTACACAATTTTGTGAACAT [XGTACX_site8053],9.6

row,Sequence,gcPBM binding intensity (ln)
1,GATGGAATCTAATTTACATGCAGTGATATAATAAAT [TGCATGCA_site1031],9.55
2,ATTTATTTATTTATATGTACATATATATATATATAT [XGTACX_site339],9.95
3,AAAGTTTTAAGAAAATGTACATAAGTATACATATAT [XGTACX_site1293],9.66
4,TTTTTCTATTCCATTCAACACACAAAAATGTATGCT [CACACA_site8268],9.88
5,TGCATTTTACTTGTTACACACATATAAAATTAACCA [CACACA_site7387],9.74
6,ATTCTTGTTATATAAGGTACAGAACAAAATATAAAA [XGTACX_site5510],9.61
7,TTTGGGATAAAACAAAGTACTAACAAAATATATAAT [XGTACX_site8240],9.64
8,AAATGGAGTTAATATTGTACATATATATATATATAT [XGTACX_site5452],9.76
9,TTTTTTTTTTTTTTAACACACATATAAATATTTTTC [CACACA_site6985],9.56
10,TTTTATTATATGGAGGTGCATATATAATAATATAAT [GTGCAC_site9477],9.47
11,ATCGGTAATATTAACACACACATTTATTTATATTTA [CACACA_site6638],10.1
12,TTCTTTTTAAATATACTAATTATGTATAAAACAGAA [GTGCAC_negctrl_site131],9.34
13,ATGTATGTAATAAAAAGTACATATGTTCATAATAAA [XGTACX_site842],10.1
14,TTTTATAAATATTTTTGTACACATTTAAATATTATT [XGTACX_site4973],9.51
15,TTTTCATATATTTATTGTACATATTACATATATAAT [XGTACX_site2425],9.85
16,ATTTATAAATCAAAGTGTACATATGTTTTATTTTTT [XGTACX_site804],9.83
17,AGAGAGAACGGTATAACATGCAATAAATTTCAGAAG [TGCATGCA_site423],9.6
18,TTTTTTTAATAAAAGTGTACCAAATTATATACACAT [XGTACX_site6811],9.65
19,AACACATACATATATGCACACATTTTATTCCATTAT [CACACA_site2834],10.1
20,TTTTTTTTTTTTTGTACATGCAAATATTATGAACAC [TGCATGCA_site571],9.56
